The source gives no read counts; variants with many changes may rest on few reads.
B1: LINE1-mini (parent)
chain: GGCAGAGCUCAACACAGCGUGGCAAAGUGGCUGUGGCUAGACUGCC

Variants of: B1
Assay: self-cleavage, relative activity (ratio to wild type); higher = more cleavage; in vitro, sequencing; the parent is a self-cleaving ribozyme

Row | Variant | self-cleavage
1 | A16C G29A G36A | 0.04
2 | G7A U9G A12G | 0.15
3 | G2C C23A G36A U43G | 0
4 | C8U G17C C18U U20C C31A U32G | 0.07
5 | A12U G17C G27U G40C | 0.03
6 | G2C C3U A16U C18G C23U | 0.05
7 | G2U A14U A24C U34A U38G | 0.04
8 | G2C G5C A11C G19U A25C G35C | 0
9 | G27U G35A A39G | 0.1
10 | G2U A12C A14U A16C C31A C45A | 0.01
11 | C3U C8G U28G G36A | 0.24
12 | C3U C8A C10U | 0.07
13 | G5U A14C G29C A39G U43C | 0
14 | U9C A26C A39C | 0.04
15 | G5U G22A U32C G44A | 0.04
16 | A14U C18G G35A | 0.03
17 | C3G G7U U9G C46U | 0.61
18 | G33C U38C G40A | 0.01
19 | U9G A11G C18U C31G | 0.01
20 | A16C G33U C45G | 0
21 | C18A G27C G40C | 0.19
22 | C15A A26U G33A | 0.05
23 | G5C A6U U9A | 0.66
24 | C18U G27U U34A | 0.14

Row | Variant | self-cleavage
25 | A4U U9A C13G G22A G29C G36U A39C | 0.11
26 | G2C C23A A24C G40A | 0.02
27 | G2U C10A A16G | 0
28 | C13A U34A C37G | 0.04
29 | G2A G5U C13G C15U | 0.17
30 | A4C A14G C23G | 0.39
31 | C13U G19A G35U G44C | 0.1
32 | A4G C18A U32A G36C A39U | 0.02
33 | A4G A24U U32C | 0
34 | A12U C18G U20G U34C | 0.02
35 | C18G G22C G35U | 0.04
36 | C37A C45G C46U | 0.21
37 | G19C G21U C46U | 0.26
38 | G19C U20G G27A | 0.38
39 | C3U C10U G29C | 0.07
40 | A4G U28G C37G A39U | 0.09
41 | C10G G36C C42U C45U | 0.03
42 | A25C C37G A41U C42U | 0.02
43 | G22U A26C U28A G30A | 0.08
44 | G5C A6C U9A C10U G17A A24G G27C G29U | 0.06
45 | A12C C23A A26U U28A U32G C37A | 0.01
46 | G5U C18G G30A U32C U34A A41C C46U | 0
47 | A11G A12G G17A G33U | 0
48 | G1U A6U A24C A25U U32C | 0.07

Row | Variant | self-cleavage
49 | G1U G2U A4C A16C G27U | 0.04
50 | A4G U9C U32A | 0.03
51 | G5U A6U C8A A14U G29C C31A | 0.12
52 | A6U G33U U34C G40A | 0.06
53 | C15U C45G C46U | 0.09
54 | C3U A4C A24C C46U | 0.06
55 | G5A A6C A26G | 0.5
56 | G19A C23U G35C A39G | 0.06
57 | A12U G33U C46A | 0.01
58 | C10G C15U G19A | 0.03
59 | C10G A12G G30C C31U | 0
60 | G21U C31U G35C U43A | 0.01
61 | G2U C18G C31G | 0.02
62 | G1U C10A G27A G29U C42G | 0.01
63 | G2A A11C G22A G29U U32A G44U | 0.01
64 | G2C C15A A16U A25U G27U U32G | 0.06
65 | G17U G19A G27C G35U U38C | 0.07
66 | A11C G22U U34C | 0.06
67 | C10U G17A G30A | 0.05
68 | A6U C10A A11U A12U A41G U43C | 0.02
69 | A16G G36A U43C | 0.07
70 | G17C C18G G30U | 0.22
71 | A11G A16G A24G C31A | 0.02
72 | C10A U20A G21A C45A C46G | 0.01

Row | Variant | self-cleavage
73 | G7C A24G C37U A41C | 0.03
74 | G1A A12U G33U | 0.07
75 | G2U G7A A26C | 0.04
76 | G19U A26C C42U G44U | 0.69
77 | A12C C37U A39G | 0
78 | G5C G17C G22U U32G U34A U43G C45A | 0.09
79 | U9G C10U G44U | 0.04
80 | A6G A14U U43A C46U | 0.06
81 | A6U C18U U20G A24U U34G A39G | 0.01
82 | A12C G22U A26G G29C C46A | 0
83 | G7A U28A C45U | 1.01
84 | C8U A11U C13U C45G | 0.01
85 | G17U G22C C42U | 0.23
86 | C3G G21C C23A | 0.23
87 | G2A U20G C37G | 0.11
88 | C8G C42A G44C C45U | 0.01
89 | G1A G30A U34G C42G | 0.04
90 | G1C C18A U28A A39U G40C | 0.01
91 | G1U C10G A16G A24G | 0.07
92 | C8A A14U G21U U38C | 0.07
93 | A6U A12C A16G C46G | 0
94 | C3G A12G U20A G36U | 0.14
95 | G2U A24C U34G C42U | 0
96 | G22C U28G C45G | 0.09

Row | Variant | self-cleavage
97 | G5A A6C C23A U38G | 0.02
98 | G19C C23A A25G G30U A41U | 0.13
99 | C3U G7C C15G G36U U43A | 0
100 | G27U G29C G33U U34C | 0.09
101 | C10A C13A C18A | 0.04
102 | G2A U9G C23U A24C C45G | 0.02
103 | A6G G7U A14C A16U G27U | 0.04
104 | G2U G21A A24G C46U | 0.07
105 | A6C A16U G27A | 0.37
106 | A16U A24C C37U | 0.1
107 | U9A C15A A41C | 0.07
108 | U9A U20G G33U G35U | 0.17
109 | A12C G17A G22A A26U C31A | 0.04
110 | C8A U9A A14G G36A U43G G44U | 0.24
111 | C10U G22C G33U | 0.04
112 | G27C G30C C31A G44U | 0.07
113 | G1U A11C A12U C13G G17C A24G U32A | 0
114 | A4U U20G G35A | 0.05
115 | C8U G21U G36U | 0.12
116 | C8A U20G G35A | 0.44
117 | G7A C10A G19A A26U A39U | 0.02
118 | G2C C10U G29C G40C A41C U43A | 0.01
119 | G7C C23A C42U | 0.3
120 | C15U C37A U38A U43A | 0.02

Row | Variant | self-cleavage
121 | A6G U9A U32A C37U | 0.02
122 | A24G G30A C45U | 0.14
123 | A6U U9G A12U | 0.07
124 | G2A G7U U28G | 0.06
125 | G2U C3G C15G C18A G30C U38A U43A | 0
126 | A4U C23G A25G G29U G36U | 0.03
127 | C23A G27A A41C | 0.02
128 | C18G C37A C45A C46G | 0.02
129 | G17C U20G C42G C46G | 0.03
130 | G5C G29C U43C | 0.02
131 | G1U C3A A6C G27C U38G C46U | 0.04
132 | G2C A11U A24C U32A C42G | 0
133 | G2C G5A G29U C37U | 0.06
134 | G5C A16G A24G A25C G27A | 0.04
135 | G7U C8U A11C G27A U28C G29U C37A C42U C45A | 0
136 | G1C G2U C10G C18A A26U | 0.01
137 | A6G A12C C31A C42U | 0.04
138 | G7U U9C G17U | 0.05
139 | A6C U28A G30A G36U C37A C45A C46G | 0.06
140 | G17U C18A G22C U43C | 0.02
141 | G5A G27C G29U G36C U38C | 0
142 | G17U G22U A24U U32G | 0.06
143 | A6G G29A U32C | 0.07
144 | G2A G7A G35U G40U | 0.48

Row | Variant | self-cleavage
145 | A12G G36U G44A | 0.02
146 | G5U C10A C46A | 0
147 | A14U C23G C37U C45A C46U | 0.06
148 | G2C A6U C18U C42A | 0.04
149 | G2C A11U G27C | 0.02
150 | C3G C18U G35C | 0.11
151 | C15G A24U U38A | 0.02
152 | U9C A12G C13G A41U | 0.01
153 | C3A A11C C45A | 0.03
154 | G5A A14G C18U G21U G36A | 0.14
155 | G30A C37U G44U | 0.01
156 | G1A G17U A39C G40A | 0.02
157 | C13A A24G U32A C42U | 0.15
158 | C15A C18G G40U A41C | 0.1
159 | G29U U38C G44A C46A | 0.1
160 | U9A A11G G21U A24C | 0.01
161 | G7U C31U U38C | 0.02
162 | U38A G40C C45U | 0.12
163 | G2A A26G C37G | 0.11
164 | G17U G19A A26U U32A | 0.07
165 | C31U G33A G36U | 0.03
166 | A14U G19C U32A G35A G36A A41G G44U | 0.03
167 | C18A G22A A24U | 0.55

From the RNAGym collection of RNA variant scans (doi:10.7554/elife.90254)
